{"source": "PubChem BioAssay AID270", "about": "(DTP/NCI, 2004)", "system": "BDF1 mice, s.c. Lewis lung carcinoma, T/C %", "experiment": "NCI In Vivo Anticancer Drug Screen. Data for tumor model Lewis Lung Carcinoma (subcutaneous) in B6D2F1 (BDF1) mice", "experimental": "The antitumor activity of compounds was measured in mice bearing transplantable tumors. Survival or tumor size were measured and the results are expressed as the measurement made in the treated group (T) divided by the measurement made in the vehicle treated control group (C). The tumor model used in this assay is Lewis Lung Carcinoma (subcutaneous) in B6D2F1 (BDF1) mice", "note": "Inconclusive results are not listed. Some entries of the source have several records that differ or are many. The other results are left out here. An entry can have further records. The records of an entry do not match, cause unknown; they may come from other doses, times, organisms or constructs than stated. Records carry a tag for their origin. Letters count within one entry.", "data": [{"smiles": "O=NN(CCCl)C(=O)NCCCl", "values": [{"measurement": "T/C", "setting": "endpoint: median survival time, dose: 10.0 mg/kg/injection, schedule: Q01DX005 (ip), vehicle: saline + alcohol, higher = longer survival", "result": "95 % of control and 198 % of control"}, {"measurement": "T/C", "setting": "endpoint: median survival time, dose: 40.0 mg/kg/injection, schedule: Q01DX001 (ip), vehicle: saline + alcohol, higher = longer survival", "result": "95 % of control, 105 % of control, 172 % of control"}]}, {"smiles": "O=NN(CCCl)C(=O)NC1CCS(=O)(=O)CC1", "values": [{"measurement": "T/C", "setting": "endpoint: median survival time, dose: 5.0 mg/kg/injection, schedule: Q04DX004 (ip), vehicle: carboxymethylcellulose (CMC), higher = longer survival", "result": "105 % of control and 193 % of control"}]}, {"smiles": "CCOC(=O)C1CCC(NC(=O)N(CCCl)N=O)CC1", "note": "(stereo not drawn)", "values": [{"measurement": "T/C", "setting": "endpoint: median survival time, dose: 8.0 mg/kg/injection, schedule: Q04DX004 (ip), vehicle: gum acacia, higher = longer survival", "result": "103 % of control and 193 % of control"}]}, {"smiles": "CC1CCC(NC(=O)N(CCCl)N=O)CC1", "note": "(stereo not drawn)", "values": [{"measurement": "T/C", "setting": "endpoint: median survival time, dose: 4.0 mg/kg/injection, schedule: Q01DX001 (ip), vehicle: saline + alcohol, higher = longer survival", "result": "106 % of control and 156 % of control"}]}, {"smiles": "O=P1(N(CCCl)CCCl)NCCCO1", "note": "(stereo not drawn)", "values": [{"measurement": "T/C", "setting": "endpoint: median survival time, dose: 30.0 mg/kg/injection, schedule: Q01DX005 (ip), vehicle: saline, higher = longer survival", "result": "113 % of control and 151 % of control"}]}, {"smiles": "O=NN(CCCl)C(=O)N[C@H]1CCCC[C@@H]1Cl", "values": [{"measurement": "T/C", "setting": "endpoint: median survival time, dose: 15.0 mg/kg/injection, schedule: Q04DX004 (ip), vehicle: gum acacia, higher = longer survival", "result": "104 % of control and 153 % of control"}, {"measurement": "T/C", "setting": "endpoint: median survival time, dose: 27.0 mg/kg/injection, schedule: Q07DX002 (ip), vehicle: gum acacia, higher = longer survival", "result": "109 % of control and 151 % of control"}, {"measurement": "T/C", "setting": "endpoint: median survival time, dose: 36.0 mg/kg/injection, schedule: Q07DX002 (ip), vehicle: gum acacia, higher = longer survival", "result": "112 % of control and 172 % of control"}]}, {"smiles": "CC(CN1CC(=O)NC(=O)C1)N1CC(=O)NC(=O)C1", "note": "(stereo not drawn)", "values": [{"measurement": "T/C", "setting": "endpoint: median tumor weight (est.), dose: 7.0 mg/kg/injection, schedule: Q03HX032 (ip), vehicle: saline, higher = larger tumour", "result": "9 % of control and 47 % of control"}, {"measurement": "T/C", "setting": "endpoint: median tumor weight (est.), dose: 45.0 mg/kg/injection, schedule: Q01DX011 (ip), vehicle: saline, higher = larger tumour", "result": "26 % of control and 67 % of control"}]}, {"smiles": "O=NN(CCCl)C(=O)NC1CCC(NC(=O)N(CCCl)N=O)CC1", "note": "(stereo not drawn)", "values": [{"measurement": "T/C", "setting": "endpoint: median survival time, dose: 60.0 mg/kg/injection, schedule: Q04DX004 (ip), vehicle: saline with Tween-80, higher = longer survival", "result": "112 % of control and 171 % of control"}]}, {"smiles": "O=NN(CCCl)C(=O)NC1CCC(C(=O)O)CC1", "note": "(stereo not drawn)", "values": [{"measurement": "T/C", "setting": "endpoint: median survival time, dose: 45.0 mg/kg/injection, schedule: Q01DX001 (ip), vehicle: saline with Tween-80, higher = longer survival", "result": "115 % of control, 288 % of control [sample A] and 86 % of control [sample B]"}]}]}
